Reference: PMC5460246
No constants are given. Whether binding was seen depends on the method and setting. In cells and extracts the contact can be indirect. Blank lines part the entries; values can stand above or below the binder they belong to.

Target: T1, Ndd1-VC (budding yeast) (UniProt Q08887)
T1 sequence: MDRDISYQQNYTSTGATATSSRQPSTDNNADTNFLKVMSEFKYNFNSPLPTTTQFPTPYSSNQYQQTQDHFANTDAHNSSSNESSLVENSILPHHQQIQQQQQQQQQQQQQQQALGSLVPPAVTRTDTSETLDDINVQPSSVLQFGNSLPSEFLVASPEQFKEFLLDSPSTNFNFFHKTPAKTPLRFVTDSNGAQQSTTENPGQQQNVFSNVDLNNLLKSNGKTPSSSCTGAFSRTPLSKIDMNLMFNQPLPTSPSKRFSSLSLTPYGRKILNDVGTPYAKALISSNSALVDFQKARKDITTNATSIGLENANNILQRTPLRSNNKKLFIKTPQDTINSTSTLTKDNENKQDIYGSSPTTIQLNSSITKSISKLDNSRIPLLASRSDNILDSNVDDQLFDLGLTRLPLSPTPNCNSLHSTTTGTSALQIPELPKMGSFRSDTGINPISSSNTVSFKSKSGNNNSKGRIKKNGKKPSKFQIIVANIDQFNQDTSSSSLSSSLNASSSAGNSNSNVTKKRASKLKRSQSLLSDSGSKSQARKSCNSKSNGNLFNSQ
Experiment: split reporter; BiFC with Venus fragments: Ndd1-VC in haploid yeast cells, VN fusions from p426 plasmids; fluorescence microscopy; for Fkh2/Ndd1 followed in time after alpha-factor synchronisation and in hydroxyurea-treated cells

binding: no binding
B1: VN-Clb4 (protein, UniProt P24871 1-460)
chain: MMLEGYTVQPPQSTLIGDIEIQDENANQEVKNVLYQGVQKGIKRLEKRQRRVALGDVTSQKANKIHNAIHNKFHQTKNNFEIENIRSSALVKEQQRDVRHEDSDYFLIDSSEGSSTDDEQVNEDAIDDLLSRRVNDQQIQADEVYEDFDGEMQDVIEEDVDSQIEPLSPINNDEIQTELDRAFEKYFRSVPNPLDDDTHDVVMVVEYASDIFYYLRELEVKYRPNPYYMQNQVELTWPFRRTMIDWLVQLHFRFQLLPETLYLTINIVDRFLSKKTVTLNRFQLVGVSALFIAAKFEEINCPTLDDLVYMLENTYTRDDIIRAEQYMIDTLEFEIGWPGPMPFLRRISKADDYDFEPRTLAKYLLETTIVEPKLVAAAPSWLAAGAYFLSRTILGSNDWSLKHVFYSGYTSSQIIPLASLILENCKNASRRHHSIWKKYFDQKHYRCSQIVEEWIVSTEA

binding: no binding
B2: VN-Clb1 (protein, UniProt P24868 1-471)
chain: MSRSLLVENSRTINSNEEKGVNESQYILQKRNVPRTILGNVTNNANILQEISMNRKIGMKNFSKLNNFFPLKDDVSRADDFTSSFNDSRQGVKQEVLNNKENIPEYGYSEQEKQQCSNDDSFHTNSTALSCNRLIYSENKSISTQMEWQKKIMREDSKKKRPISTLVEQDDQKKFKLHELTTEEEVLEEYEWDDLDEEDCDDPLMVSEEVNDIFDYLHHLEIITLPNKANLYKHKNIKQNRDILVNWIIKIHNKFGLLPETLYLAINIMDRFLCEEVVQLNRLQLVGTSCLFIASKYEEIYSPSIKHFAYETDGACSVEDIKEGERFILEKLDFQISFANPMNFLRRISKADDYDIQSRTLAKFLMEISIVDFKFIGILPSLCASAAMFLSRKMLGKGTWDGNLIHYSGGYTKAKLYPVCQLLMDYLVGSTIHDEFLKKYQSRRFLKASIISIEWALKVRKNGYDIMTLHE
